Experimental data: US9931327B2, “Derivatives of 1-phenyl-2-pyridinyl alkyl alcohols as phosphodiesterase inhibitors” (Chiesi Farmaceutici S.p.A., priority 2011, dated 2018)
Some of these results come from one statement about several compounds together.

Test system: T1, PDE4
T1 construct: PDE4 activity was determined in U937 human monocytic supernatants cells lysate
Assay: In vitro determination of PDE4 inhibitory activity in the cell free assay (cAMP disappearance, U937 cell lysate supernatant)
Assay type: biochemical
Details: U937 human monocytic cell lysate supernatant, compounds of the invention, read-out: PDE4 inhibition (IC50, 50% inhibition of cAMP disappearance)

Row | IC50 | Structure (SMILES)
1 | 0.1 to 1 nM | O=C(O[C@@H](Cc1c(Cl)c[n+]([O-])cc1Cl)c1ccc(OC(F)F)c(OCC2CC2)c1)C1SCCN1S(=O)(=O)c1cccs1 (stereo partly drawn) [Compound 62, 3,5-dichloro-4-((2S)-2-(3-(cyclopropylmethoxy)-4-(difluoromethoxy)phenyl)-2-(3-(thiophen-2-ylsulfonyl)thiazolidine-2-carbonyloxy)ethyl)pyridine 1-oxide]
2 | 0.1 to 1 nM | O=C(O[C@@H](Cc1c(Cl)c[n+]([O-])cc1Cl)c1ccc(OC(F)F)c(OCC2CC2)c1)C1SCCN1S(=O)(=O)c1cccc(Cl)c1 (stereo partly drawn) [Compound 63, 3,5-dichloro-4-((2S)-2-(3-(3-chlorophenylsulfonyl)thiazolidine-2-carbonyloxy)-2-(3-(cyclopropylmethoxy)-4-(difluoromethoxy)phenyl)ethyl)pyridine 1-oxide]
3 | < 0.1 nM | Cn1ccnc1S(=O)(=O)N1CCSC1C(=O)O[C@@H](Cc1c(Cl)c[n+]([O-])cc1Cl)c1ccc(OC(F)F)c(OCC2CC2)c1 (stereo partly drawn) [Compound 64, 3,5-dichloro-4-((2S)-2-(3-(cyclopropylmethoxy)-4-(difluoromethoxy)phenyl)-2-(3-(1-methyl-1H-imidazol-2-ylsulfonyl)thiazolidine-2-carbonyloxy)ethyl)pyridine 1-oxide]
4 | < 0.1 nM | O=C(O[C@@H](Cc1c(Cl)c[n+]([O-])cc1Cl)c1ccc(OC(F)F)c(OCC2CC2)c1)C1SCCN1S(=O)(=O)CC1CC1 (stereo partly drawn) [Compound 65, 3,5-dichloro-4-((2S)-2-(3-(cyclopropylmethoxy)-4-(difluoromethoxy)phenyl)-2-(3-(cyclopropylmethylsulfonyl)thiazolidine-2-carbonyloxy)ethyl)pyridine 1-oxide]
5 | < 0.1 nM | O=C(O[C@@H](Cc1c(Cl)c[n+]([O-])cc1Cl)c1ccc(OC(F)F)c(OCC2CC2)c1)C1SCCN1S(=O)(=O)c1cccnc1 (stereo partly drawn) [Compound 66, 3,5-dichloro-4-((2S)-2-(3-(cyclopropylmethoxy)-4-(difluoromethoxy)phenyl)-2-(3-(pyridin-3-ylsulfonyl)thiazolidine-2-carbonyloxy)ethyl)pyridine 1-oxide]
6 | 0.1 to 1 nM | O=C(O[C@@H](Cc1c(Cl)c[n+]([O-])cc1Cl)c1ccc(OC(F)F)c(OCC2CC2)c1)C1SCCN1S(=O)(=O)c1ccc(F)cc1F (stereo partly drawn) [Compound 67, 3,5-dichloro-4-((2S)-2-(3-(cyclopropylmethoxy)-4-(difluoromethoxy)phenyl)-2-(3-(2,4-difluorophenylsulfonyl)thiazolidine-2-carbonyloxy)ethyl)pyridine 1-oxide]
7 | 0.1 to 1 nM | O=C(O[C@@H](Cc1c(Cl)c[n+]([O-])cc1Cl)c1ccc(OC(F)F)c(OCC2CC2)c1)C1SCCN1S(=O)(=O)c1ccc(F)cc1Cl (stereo partly drawn) [Compound 68, 3,5-dichloro-4-((2S)-2-(3-(2-chloro-4-fluorophenylsulfonyl)thiazolidine-2-carbonyloxy)-2-(3-(cyclopropylmethoxy)-4-(difluoromethoxy)phenyl)ethyl)pyridine 1-oxide]
8 | 0.1 to 1 nM | Cc1cc(F)ccc1S(=O)(=O)N1CCSC1C(=O)O[C@@H](Cc1c(Cl)c[n+]([O-])cc1Cl)c1ccc(OC(F)F)c(OCC2CC2)c1 (stereo partly drawn) [Compound 69, 3,5-dichloro-4-((2S)-2-(3-(cyclopropylmethoxy)-4-(difluoromethoxy)phenyl)-2-(3-(4-fluoro-2-methylphenylsulfonyl)thiazolidine-2-carbonyloxy)ethyl)pyridine 1-oxide]
9 | 0.1 to 1 nM | O=C(O[C@@H](Cc1c(Cl)c[n+]([O-])cc1Cl)c1ccc(OC(F)F)c(OCC2CC2)c1)C1SCCN1S(=O)(=O)c1ccccc1Cl (stereo partly drawn) [Compound 70, 3,5-dichloro-4-((2S)-2-(3-(2-chlorophenylsulfonyl)thiazolidine-2-carbonyloxy)-2-(3-(cyclopropylmethoxy)-4-(difluoromethoxy)phenyl)ethyl)pyridine 1-oxide]
10 | 0.1 to 1 nM | O=C(O[C@@H](Cc1c(Cl)c[n+]([O-])cc1Cl)c1ccc(OC(F)F)c(OCC2CC2)c1)C1SCCN1S(=O)(=O)C1CCCCC1 (stereo partly drawn) [Compound 71, 3,5-dichloro-4-((2S)-2-(3-(cyclohexylsulfonyl)thiazolidine-2-carbonyloxy)-2-(3-(cyclopropylmethoxy)-4-(difluoromethoxy)phenyl)ethyl)pyridine 1-oxide]
11 | 0.1 to 1 nM | O=C(O[C@@H](Cc1c(Cl)c[n+]([O-])cc1Cl)c1ccc(OC(F)F)c(OCC2CC2)c1)C1SCCN1S(=O)(=O)c1ccc2[nH]c(=O)[nH]c(=O)c2c1 (stereo partly drawn) [Compound 72, 3,5-dichloro-4-((2S)-2-(3-(cyclopropylmethoxy)-4-(difluoromethoxy)phenyl)-2-(3-(2,4-dioxo-1,2,3,4-tetrahydroquinazolin-6-ylsulfonyl)thiazolidine-2-carbonyloxy)ethyl)pyridine 1-oxide]
12 | < 0.1 nM | COc1ccc(S(=O)(=O)N2CCSC2C(=O)O[C@@H](Cc2c(Cl)c[n+]([O-])cc2Cl)c2ccc(OC(F)F)c(OCC3CC3)c2)cc1OC (stereo partly drawn) [Compound 73, 3,5-dichloro-4-((2S)-2-(3-(cyclopropylmethoxy)-4-(difluoromethoxy)phenyl)-2-(3-(3,4-dimethoxyphenylsulfonyl)thiazolidine-2-carbonyloxy)ethyl)pyridine 1-oxide]
13 | 0.1 to 1 nM | O=C(O[C@@H](Cc1c(Cl)c[n+]([O-])cc1Cl)c1ccc(OC(F)F)c(OCC2CC2)c1)C1SCCN1S(=O)(=O)c1ccc(N2CCOCC2)nc1 (stereo partly drawn) [Compound 74, 3,5-dichloro-4-((2S)-2-(3-(cyclopropylmethoxy)-4-(difluoromethoxy)phenyl)-2-(3-(6-morpholinopyridin-3-ylsulfonyl)thiazolidine-2-carbonyloxy)ethyl)pyridine 1-oxide]
14 | 0.1 to 1 nM | Cc1noc(C)c1S(=O)(=O)N1CCSC1C(=O)O[C@@H](Cc1c(Cl)c[n+]([O-])cc1Cl)c1ccc(OC(F)F)c(OCC2CC2)c1 (stereo partly drawn) [Compound 76, 3,5-dichloro-4-((2S)-2-(3-(cyclopropylmethoxy)-4-(difluoromethoxy)phenyl)-2-(3-(3,5-dimethylisoxazol-4-ylsulfonyl)thiazolidine-2-carbonyloxy)ethyl)pyridine 1-oxide]
15 | < 0.1 nM | CN(C)C(=O)c1cccc(S(=O)(=O)N2CCOC(C(=O)O[C@@H](Cc3c(Cl)c[n+]([O-])cc3Cl)c3ccc(OC(F)F)c(OCC4CC4)c3)C2)c1 (stereo partly drawn) [Compound 78, 3,5-dichloro-4-((2S)-2-(3-(cyclopropylmethoxy)-4-(difluoromethoxy)phenyl)-2-(4-(3-(dimethylcarbamoyl)phenylsulfonyl)morpholine-2-carbonyloxy)ethyl)pyridine 1-oxide]
16 | 0.1 to 1 nM | O=C(O[C@@H](Cc1c(Cl)c[n+]([O-])cc1Cl)c1ccc(OC(F)F)c(OCC2CC2)c1)C1CN(S(=O)(=O)c2ccccc2)CCO1 (stereo partly drawn) [Compound 79, 3,5-dichloro-4-((2S)-2-(3-(cyclopropylmethoxy)-4-(difluoromethoxy)phenyl)-2-(4-(phenylsulfonyl)morpholine-2-carbonyloxy)ethyl)pyridine 1-oxide]
17 | 0.1 to 1 nM | CN(C)C(=O)c1cccc(S(=O)(=O)N2CCSCC2C(=O)O[C@@H](Cc2c(Cl)c[n+]([O-])cc2Cl)c2ccc(OC(F)F)c(OCC3CC3)c2)c1 (stereo partly drawn) [Compound 80, 3,5-dichloro-4-((2S)-2-(3-(cyclopropylmethoxy)-4-(difluoromethoxy)phenyl)-2-(4-(3-(dimethylcarbamoyl)phenylsulfonyl)thiomorpholine-3-carbonyloxy)ethyl)pyridine 1-oxide]
18 | 0.1 to 1 nM | CNS(=O)(=O)c1ccc(S(=O)(=O)N2CCSCC2C(=O)O[C@@H](Cc2c(Cl)c[n+]([O-])cc2Cl)c2ccc(OC(F)F)c(OCC3CC3)c2)cc1 (stereo partly drawn) [Compound 81, 3,5-dichloro-4-((2S)-2-(3-(cyclopropylmethoxy)-4-(difluoromethoxy)phenyl)-2-(4-(4-(N-methylsulfamoyl)phenylsulfonyl)thiomorpholine-3-carbonyloxy)ethyl)pyridine 1-oxide]
19 | < 0.1 nM | CN(C)C(=O)c1cccc(S(=O)(=O)N2CCCC[C@H]2C(=O)O[C@@H](Cc2c(Cl)c[n+]([O-])cc2Cl)c2ccc(OC(F)F)c(OCC3CC3)c2)c1 [Compound 82, 3,5-dichloro-4-((S)-2-(3-(cyclopropylmethoxy)-4-(difluoromethoxy)phenyl)-2-((S)-1-(3-(dimethylcarbamoyl)phenylsulfonyl)piperidine-2-carbonyloxy)ethyl)pyridine 1-oxide]
20 | 0.1 to 1 nM | CN(C)C(=O)c1cccc(S(=O)(=O)N2CCCC[C@@H]2C(=O)O[C@@H](Cc2c(Cl)c[n+]([O-])cc2Cl)c2ccc(OC(F)F)c(OCC3CC3)c2)c1 [Compound 83, 3,5-dichloro-4-((S)-2-(3-(cyclopropylmethoxy)-4-(difluoromethoxy)phenyl)-2-((R)-1-(3-(dimethylcarbamoyl)phenylsulfonyl)piperidine-2-carbonyloxy)ethyl)pyridine 1-oxide]
21 | < 0.1 nM | CN(C)C(=O)c1cccc(S(=O)(=O)N2CSC[C@H]2C(=O)O[C@@H](Cc2c(Cl)c[n+]([O-])cc2Cl)c2ccc(OC(F)F)c(OCC3CC3)c2)c1 [Compound 84, 3,5-dichloro-4-((S)-2-(3-(cyclopropylmethoxy)-4-(difluoromethoxy)phenyl)-2-((R)-3-(3-(dimethylcarbamoyl)phenylsulfonyl)thiazolidine-4-carbonyloxy)ethyl)pyridine 1-oxide]
22 | < 0.1 nM | O=C(O[C@@H](Cc1c(Cl)c[n+]([O-])cc1Cl)c1ccc(OC(F)F)c(OCC2CC2)c1)C1SCCN1S(=O)(=O)c1ccsc1 (stereo partly drawn) [Compound 85, 3,5-dichloro-4-((2S)-2-(3-(cyclopropylmethoxy)-4-(difluoromethoxy)phenyl)-2-(3-(thiophen-3-ylsulfonyl)thiazolidine-2-carbonyloxy)ethyl)pyridine 1-oxide]
23 | 0.1 to 1 nM | O=C(O[C@@H](Cc1c(Cl)c[n+]([O-])cc1Cl)c1ccc(OC(F)F)c(OCC2CC2)c1)[C@@H]1CCCN1S(=O)(=O)c1ccccc1 [Compound 86, 3,5-dichloro-4-((S)-2-(3-(cyclopropylmethoxy)-4-(difluoromethoxy)phenyl)-2-((S)-1-(phenylsulfonyl)pyrrolidine-2-carbonyloxy)ethyl)pyridine 1-oxide]
